Measurements taken from PubChem BioAssay (NCI).
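Method: 48-hour compound exposure of cells in 96-well plates, five concentrations, linear interpolation of endpoints. The concentration for 50% growth inhibition is given as GI50. At the TGI there is no net growth.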

System: NCI-H322M lung
Test: NCI-60 cell line screen, 48 h

Row | Structure (SMILES) | GI50 [nM] | TGI [µM]
1 | CC(C)=CCC/C(C)=C/[C@H]1OC(=O)CC12C[C@H](O)C=CC2=O (stereo not given in full) | 1560 | 3.16
2 | C[C@@H]1OCC(O)C([C@H]2OC(c3ccccc3)=N[C@H]2CO)O1 (stereo not given in full) |  | > 100
3 | C/C(=C\CNc1nc(Cl)nc2nc[nH]c12)CO |  | > 100
4 | c1cc2ccc1CNCCN1CCNCc3ccc(cc3)Oc3ccc(cc3)CNCCN(CCNCc3ccc(cc3)O2)CCNCc2ccc(cc2)Oc2ccc(cc2)CNCC1 | 940 | 2.16
5 | Cc1cc(Cl)ccc1NC(=O)CCCC(=O)C(C(=O)c1ccccc1)c1ccccc1 (stereo not given) |  | > 100
6 | Cc1nc2sc(C(=O)Nc3cccc(Cl)c3C)c(N)c2cc1C(C)O (stereo not given) | 393 | > 100
7 | COC(=O)C1[C@H](C(=O)OC)C1(Br)CBr (stereo not given in full) |  | > 100
8 | CCC1(CC)C(=O)[N-]C(=O)[N-]C1=O.[Au+].[Au+].c1ccc([PH+](c2ccccc2)c2ccccc2)cc1.c1ccc([PH+](c2ccccc2)c2ccccc2)cc1 | 1690 | 3.06
9 | O=C(O)c1ccc2cccnc2c1O | 2910 | > 79.1
10 | N#CC1CCc2c(c(-c3cn[nH]c3C(F)(F)F)nc3c(F)cc4[nH]ncc4c23)C1 (stereo not given) | 10100 | 64.2
11 | CSc1ccccc1P(CCP(c1ccccc1SC)c1ccccc1SC)c1ccccc1SC |  | > 100
12 | CCCC(=O)OC1CC(n2cc(F)c(=O)[nH]c2=O)OC1CO (stereo not given) |  | > 10
13 | CCOC(=O)c1cn(C)nc1N/C(C)=C\C(=O)c1ccccc1 |  | > 100
14 | O=C(O)c1oc2cccc3c2c1CCC3 |  | > 100
15 | CC1(C)Oc2ccc3c(=O)c4ccccc4oc3c2C1C(=O)O (stereo not given) |  | > 100
16 | Cc1nn2c(/C=C3\C(=O)Nc4ccccc43)c(C)nc2s1 | > 100000 | > 100
17 | CC(=O)Nc1ccc(/C=C(\NC(=O)c2ccccc2)C(=O)NNS(=O)(=O)c2ccc(C)cc2)cc1 |  | > 100
18 | Cn1c(=O)c2sc3cc4c(cc3c2c2ccccc21)sc1c(=O)n(C)c2ccccc2c14 |  | > 100

Row | Structure (SMILES) | GI50 [nM] | TGI [µM]
19 | CC(=O)O[C@H]1C(=O)[C@@]2(C)C(C(OC(=O)c3ccccc3)[C@]3(O)CC(OC(=O)C(O)C(NC(=O)c4ccccc4)c4ccc(C)cc4)C(C)=C1C3(C)C)[C@]1(OC(C)=O)CO[C@@H]1C[C@@H]2O (stereo not given in full) |  | 4.85
20 | O=C1NC(O)CCN1C1CC(O)C(CO)O1 (stereo not given) |  | > 100
21 | N=C1C(c2nc(-c3ccc(Br)cc3)cs2)=C(O)CN1CC1CCCO1 (stereo not given) | > 100000 | > 100
22 | O=C(/C=C/c1ccccc1)CCc1c(O)c2ccccc2oc1=O |  | > 100
23 | CC(C)c1nccn1Cc1ccc(Cl)cc1Cl |  | > 100
24 | C[C@@H](c1ccccc1)N(CC#N)C1CCC[C@H]1O (stereo not given in full) |  | > 100
25 | Cc1cc(Cl)ccc1NC(=O)NC(C)(C)COC(=O)Nc1cccc(Cl)c1 | 10700 | > 100
26 | COc1ccc(C2=NNC(=O)c3ccccc3N2c2nc(-c3cccs3)nc3ccc(Br)cc23)cc1 |  | > 100
27 | C/C(=C\c1ccccc1)C(=O)NCc1ccc(C(=O)NCCc2c[nH]c3ccccc23)cc1 |  | > 100
28 | COc1cc(CC2CC(c3ccc4c(c3)OCO4)OC2=O)cc(OC)c1OC (stereo not given) |  | > 100
29 | CC(C)N(Cc1ccccc1)S(=O)(=O)c1n[nH]c(C(C)(C)C)n1 |  | > 100
30 | O=C1OC(c2ccccc2)=N/C1=C/N1CCCC1C(=O)O (stereo not given) |  | > 100
31 | CC1(C)CC2(C)OC(=N)C1(C#N)C2(C#N)C#N (stereo not given) |  | 27.3
32 | CCOC(=O)c1c(-c2ccc(OC)c(O)c2)c(C#N)c(=S)n(C2OC(CO)C(O)C(O)C2O)c1-c1ccccc1 (stereo not given) |  | > 100
33 | CCOC(=O)C[n+]1ccc2c([nH]c3cc(OC)ccc32)c1C |  | > 100
34 | Cc1cc(S(=O)(=O)Nc2nc3cc(-c4ccsc4)sc3c(=O)n2N)c(S)cc1Cl | 55900 | > 100
35 | COc1cccc2ccc3c(c12)C(=O)OC31CCc2c(C)cccc21 (stereo not given) |  | > 46.4
